In PubChem BioAssay AID504937 (National Center for Advancing Translational Sciences (NCATS), 2011):
In all, about 340,000 compounds went through this assay and about 20 (0.006%) were called active. The shares of active, inactive and inconclusive entries below differ from those in the screen. Calls come from the whole dose curve; as a rule, active = well fitted inhibition curve with a large enough effect; inconclusive = small, poorly fitted or top-dose-only effect; inactive = no such curve, though single readings can be large or run the other way. A potency beside an inconclusive call is a rough fit, not a confirmed value.
Potency is the fitted concentration of half-maximal effect; tags give direction and shape of the fitted curve.

What follows are compounds tested against Sphingomyelin phosphodiesterase (Homo sapiens) (UniProt P17405) (assay: Inhibitors of Secretory Acid Sphingomyelinase (S-ASM): qHTS). Conditions: placental ASM, HMU-PC fluorogenic substrate (series up to 57.5 µM), 60 min.
Sequence of UniProt P17405 (P17405 whole entry, looked up): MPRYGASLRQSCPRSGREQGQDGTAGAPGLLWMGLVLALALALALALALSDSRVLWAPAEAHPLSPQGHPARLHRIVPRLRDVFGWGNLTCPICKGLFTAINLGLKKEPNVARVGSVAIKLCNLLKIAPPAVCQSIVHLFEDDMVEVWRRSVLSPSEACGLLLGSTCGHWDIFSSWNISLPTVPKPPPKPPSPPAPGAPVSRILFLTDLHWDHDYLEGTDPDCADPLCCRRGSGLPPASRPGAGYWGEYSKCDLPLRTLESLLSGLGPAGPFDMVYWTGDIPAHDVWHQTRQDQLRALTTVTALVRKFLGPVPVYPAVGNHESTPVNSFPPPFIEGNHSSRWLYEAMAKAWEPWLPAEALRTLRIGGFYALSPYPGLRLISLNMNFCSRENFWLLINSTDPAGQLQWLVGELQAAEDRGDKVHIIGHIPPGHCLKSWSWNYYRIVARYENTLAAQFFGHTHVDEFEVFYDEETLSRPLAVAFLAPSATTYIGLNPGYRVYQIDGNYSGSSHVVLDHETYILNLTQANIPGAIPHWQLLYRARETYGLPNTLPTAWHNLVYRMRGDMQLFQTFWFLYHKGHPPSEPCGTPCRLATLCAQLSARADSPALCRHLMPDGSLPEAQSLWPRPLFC
Method in brief: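 Steps: dispense placental human ASM, pin compound, wait 10 min at room temperature, add HMU-PC0 substrate at 9 uM final, incubate 60 min at 37 °C, add stop solution raising pH to 10, read fluorescence.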
`Cn1c(=O)n(CCc2ccccc2)c(=O)c2c1nc1n2CCCN1CCc1ccccc1` was tested, and the Potency was inconclusive: 100 µM [inhibitor, partial curve, poor fit]. With `COc1cc(/C=C2\SC(=S)N(CCC(=O)Nc3ccccc3O)C2=O)cc(OC)c1OC` the Potency was inconclusive: 89.1 µM [inhibitor, partial curve, poor fit]. For `CC(C)=CCc1c2c(c3occ(-c4ccc(O)c(O)c4)c(=O)c3c1O)C=CC(C)(C)O2`, the Potency was inconclusive: 79.4 µM [inhibitor, single point]. With `COc1ccc(-c2[nH]ncc2-c2cnn(-c3ccccc3)c2)c(O)c1` the Potency was inconclusive: 178 µM [inhibitor, partial curve, poor fit]. `CCCCc1ccc(CC(=O)Nc2cc(S(=O)(=O)N3CCOCC3)ccc2O)cc1` was tested, and the Potency was inconclusive: 100 µM [inhibitor, partial curve]. `CC(C)c1ccccc1OCC(O)CN(CC(O)COc1cccc2ccccc12)C(C)C` (stereo unspecified) was tested, and the Potency was inconclusive: 100 µM [inhibitor, partial curve, poor fit]. For `O=C(CN1C(=O)S/C(=C\c2ccccc2)C1=O)Nc1cc([N+](=O)[O-])ccc1O`, the Potency was inconclusive: 79.4 µM [inhibitor, partial curve, poor fit]. In the case of `COc1cc2c(cc1OC)CN(C(=O)c1cccc([N+](=O)[O-])c1)CC2`, the Potency is reported as “inactive”. `Cc1ccc(C(=O)Nc2ccc(N3CCN(C(=O)c4cccs4)CC3)cc2)c(Cl)c1` was tested, and the Potency was inconclusive: 79.4 µM [inhibitor, single point]. For `COc1ccc(-c2noc(CNC(=O)CCCN3C(=O)[C@H]4CC=CC[C@H]4C3=O)n2)cc1`, the Potency was inconclusive: 89.1 µM [inhibitor, single point]. `COc1cccc(-c2sc3ccc(OC)cc3c2-c2ccc(OCCN3CCCCC3)cc2)c1` was tested, and the Potency was inconclusive: 79.4 µM [inhibitor, partial curve]. In the case of `COC(=O)c1c(C)[nH]c(C(=O)COC(=O)CCNS(=O)(=O)c2cccc(C(F)(F)F)c2)c1C`, the Potency is reported as inconclusive: 112 µM [inhibitor, partial curve, poor fit]. In the case of `COc1ccc(Cl)cc1Nc1ncnc2sc(C)c(S(=O)(=O)N3CCC(C)CC3)c12`, the Potency is reported as “inactive”. For `CCN1CCN(c2oc(COc3ccc(-c4ccccc4)cc3)nc2C#N)CC1`, the Potency was inconclusive: 562 µM [inhibitor, partial curve, poor fit]. With `Cn1c(=O)c(C#N)c(-c2ccc(F)cc2)c2cc(C(=O)c3cc(Cl)cc(Cl)c3O)cnc21` the Potency was inconclusive: 251 µM [inhibitor, partial curve, poor fit]. In the case of `CCCc1nc(NCc2ccccn2)c2nnn(Cc3ccccc3F)c2n1`, the Potency is reported as “inactive”. `CCN(CC)C(=O)[C@H]1C[C@H](CC(=O)NCc2ccco2)C(=O)N2CCc3c([nH]c4cc(-c5ccco5)ccc34)[C@]12C` was tested, and the Potency was inconclusive: 112 µM [inhibitor, partial curve, poor fit]. For `C=CCc1cccc2cc(C(=O)Nc3ccccc3C(=O)O)c(=O)oc12`, the Potency was “inactive”. In the case of `Cc1csc(NC(=O)CSc2nnnn2C)n1`, the Potency is reported as “inactive”. `COc1cc(C(=O)Nc2ccc(Cl)c(C(F)(F)F)c2)cc(OC)c1OC` was tested, and the Potency was inconclusive: 100 µM [inhibitor, partial curve, poor fit]. For `O=C(Nc1nc(-c2ccccc2)cs1)c1ccc(N2CCOCC2)c([N+](=O)[O-])c1`, the Potency was inconclusive: 224 µM [inhibitor, partial curve, poor fit]. In the case of `CNC(=S)N/N=C/c1cn(Cc2ccc(F)cc2)c2ccccc12`, the Potency is reported as inconclusive: 79.4 µM [inhibitor, single point]. `CC(OC(=O)/C(C#N)=C/c1ccc(N(C)C)cc1)C(=O)N(C)Cc1ccccc1` (stereo unspecified) was tested, and the Potency was inconclusive: 282 µM [inhibitor, partial curve, poor fit]. For `Cc1cc(C)cc(NC(=S)NC(=O)C2CC2)c1`, the Potency was “inactive”. In the case of `COc1cc(OC)c(NC(=O)CCc2nc(-c3ccc(C)cc3)no2)cc1Cl`, the Potency is reported as inconclusive: 35.5 µM [inhibitor, partial curve, poor fit]. In the case of `CCOC(=O)C1=C(C)n2c(s/c(=C/c3cccc([N+](=O)[O-])c3)c2=O)=NC1c1ccc(O)c(OC)c1` (stereo unspecified), the Potency is reported as inconclusive: 251 µM [inhibitor, partial curve, poor fit]. `COc1ccc(/C=C/C(=O)Nc2cccc(F)c2)cc1S(=O)(=O)N1CCOCC1` was tested, and the Potency was inconclusive: 89.1 µM [inhibitor, single point]. `N#C/C(=N\Nc1cc(Cl)cc(Cl)c1)c1nnc2n1CCCCC2` was tested, and the Potency was inconclusive: 89.1 µM [inhibitor, single point]. `O=C(O[C@@H]1OC2COC(=O)c3cc(O)c(O)c(O)c3-c3c(cc(O)c(O)c3O)C(=O)O[C@@H]([C@H]1O)[C@@H]2O)c1cc(O)c(O)c(O)c1` was tested, and the Potency was inconclusive: 100 µM [inhibitor, partial curve, poor fit]. With `CCCc1cc2c(=O)c(-c3ccc4c(c3)OCCO4)c(C)oc2cc1OS(C)(=O)=O` the Potency was “inactive”. With `Cc1cccc(Nc2nc(N)c([N+](=O)[O-])c(N3CCCC(C)C3)n2)c1` (stereo unspecified) the Potency was inconclusive: 89.1 µM [inhibitor, single point]. For `CCOC(=O)c1c(C)[nH]c(C(=O)/C(C#N)=C/c2ccc(OC(F)F)c(OC)c2)c1C`, the Potency was inconclusive: 355 µM [inhibitor, partial curve, poor fit]. With `COc1ccc(-c2sc3ccccc3c2-c2ccc(OCCN(C)C)cc2)cc1` the Potency was inconclusive: 56.2 µM [inhibitor, partial curve, poor fit]. With `Cc1ccc2nc3sc(C(=O)N4CCCc5ccccc54)c(N)c3cc2c1` the Potency was inconclusive: 89.1 µM [inhibitor, single point]. For `CN1C(=O)/C(=C\c2ccccc2OCc2ccccc2)SC1=S`, the Potency was “inactive”. In the case of `COc1cccc2c1C(=O)c1c(O)c3c(c(O)c1C2=O)CC(O)(C(C)=NNC(=O)c1ccc(Cl)c(Cl)c1)CC3OC1CC(N)C(O)C(C)O1` (stereo unspecified), the Potency is reported as inconclusive: 70.8 µM [inhibitor, partial curve]. `O=C(CCCSc1ccc(Cl)cc1)Nc1cc(S(=O)(=O)N2CCOCC2)ccc1O` was tested, and the Potency was inconclusive: 112 µM [inhibitor, partial curve, poor fit]. In the case of `CN(C)S(=O)(=O)c1ccc2c(c1)/C(=C/c1cc3c([nH]1)CCCC3)C(=O)N2`, the Potency is reported as inconclusive: 89.1 µM [inhibitor, single point]. For `CC1(C)CC(=O)C2=C(C1)NC1=C(C(=O)c3ccccc31)C2c1ccc(Cl)cc1` (stereo unspecified), the Potency was inconclusive: 89.1 µM [inhibitor, single point]. For `CCCN1C(=O)/C(=C/c2cc(C)n(C)c2C)SC1=Nc1ccc(OC)cc1`, the Potency was inconclusive: 89.1 µM [inhibitor, partial curve, poor fit]. For `CC[n+]1cc(C)ccc1/C=C/c1ccc(N(C)C)cc1`, the Potency was inconclusive: 89.1 µM [inhibitor, partial curve, poor fit]. For `Cc1cc(C)c(C#N)c(SCC(O)COc2ccc(Br)cc2)n1` (stereo unspecified), the Potency was inconclusive: 316 µM [inhibitor, partial curve, poor fit]. In the case of `C=CCSC1=N/C(=C\c2sccc2C)C(=O)S1`, the Potency is reported as inconclusive: 224 µM [inhibitor, partial curve, poor fit]. For `C#CCOCCOCCOCCNc1nc(N2CCN(C(=O)CCCCCCCCCCNC(=O)[C@@H](CCSC)n3cc(CCO)nn3)CC2)nc(N2CCN(C(=O)CCCCCCCCCCNC(=O)[C@H](CCCN=C(N)N)n3cc(C[C@@H](C)CC)nn3)CC2)n1`, the Potency was inconclusive: 100 µM [inhibitor, partial curve, poor fit]. In the case of `COc1cc(/C=C2\SC(=S)N(CCC(=O)Nc3ccccn3)C2=O)cc(OC)c1OC`, the Potency is reported as inconclusive: 112 µM [inhibitor, partial curve, poor fit]. In the case of `C/C(=N\N=C(/N)SC1CC(=O)N(c2cccc(Cl)c2)C1=O)c1cccs1` (stereo unspecified), the Potency is reported as inconclusive: 70.8 µM [inhibitor, single point]. In the case of `COc1ccccc1N1CCN(C(=O)c2sc3nc(-c4ccc(F)cc4)cn3c2C)CC1`, the Potency is reported as inconclusive: 35.5 µM [inhibitor, partial curve, poor fit]. For `CCOC(=O)c1c(C)[nH]c(C(=O)CN2C(=O)NC(CC)(c3ccccc3)C2=O)c1C` (stereo unspecified), the Potency was inconclusive: 355 µM [inhibitor, partial curve, poor fit]. `O=c1[nH]ncc2c3ccccc3n(Cc3cccc(Cl)c3)c12` was tested, and the Potency was active: 31.6 µM. In the case of `O=C(O)c1cccc(Cn2c(Cl)c(/C=N/NC(=O)c3ccccc3O)sc2=O)c1`, the Potency is reported as inconclusive: 178 µM [inhibitor, partial curve, poor fit]. With `COc1ccccc1NC(=O)Nc1nnc(C(C)c2ccccc2)s1` (stereo unspecified) the Potency was inconclusive: 89.1 µM [inhibitor, single point]. For `COc1ccc(-c2sc3cc4c(cc3c2-c2ccc(OCCN3CCOCC3)cc2)OCO4)cc1`, the Potency was inconclusive: 79.4 µM [inhibitor, partial curve]. With `CS(=O)(=O)C1=NN2C(=N)/C(=C\c3ccc(OC(=O)c4ccco4)cc3)C(=O)N=C2S1` the Potency was inconclusive: 0.794 µM [inhibitor, partial curve, poor fit]. For `COc1cccc(NC(=O)CN(C)C(=O)C(Sc2ccccc2)c2ccccc2)c1` (stereo unspecified), the Potency was “inactive”. With `Cc1cc(-c2n[nH]c(=S)n2/N=C/c2ccc(Br)s2)n[nH]1` the Potency was inconclusive: 562 µM [inhibitor, partial curve, poor fit]. In the case of `COc1ccc(-c2ccc(OC)c([C@H]3[C@H]4C=CC[C@@H](C)[C@@H]4C(=O)N3Cc3ccccc3)c2)cc1OC`, the Potency is reported as inconclusive: 447 µM [inhibitor, partial curve, poor fit].
